This is an account of results in publication PMC4336329 (PLoS ONE, 2015).

About 2,200 (0.71%) of roughly 310,000 compounds showed an effect of 50% or more. The effect is printed as a negative number. Some of the results follow.

Chain of human ether-à-go-go-related gene (hERG) potassium channel (Q12809 whole entry, looked up): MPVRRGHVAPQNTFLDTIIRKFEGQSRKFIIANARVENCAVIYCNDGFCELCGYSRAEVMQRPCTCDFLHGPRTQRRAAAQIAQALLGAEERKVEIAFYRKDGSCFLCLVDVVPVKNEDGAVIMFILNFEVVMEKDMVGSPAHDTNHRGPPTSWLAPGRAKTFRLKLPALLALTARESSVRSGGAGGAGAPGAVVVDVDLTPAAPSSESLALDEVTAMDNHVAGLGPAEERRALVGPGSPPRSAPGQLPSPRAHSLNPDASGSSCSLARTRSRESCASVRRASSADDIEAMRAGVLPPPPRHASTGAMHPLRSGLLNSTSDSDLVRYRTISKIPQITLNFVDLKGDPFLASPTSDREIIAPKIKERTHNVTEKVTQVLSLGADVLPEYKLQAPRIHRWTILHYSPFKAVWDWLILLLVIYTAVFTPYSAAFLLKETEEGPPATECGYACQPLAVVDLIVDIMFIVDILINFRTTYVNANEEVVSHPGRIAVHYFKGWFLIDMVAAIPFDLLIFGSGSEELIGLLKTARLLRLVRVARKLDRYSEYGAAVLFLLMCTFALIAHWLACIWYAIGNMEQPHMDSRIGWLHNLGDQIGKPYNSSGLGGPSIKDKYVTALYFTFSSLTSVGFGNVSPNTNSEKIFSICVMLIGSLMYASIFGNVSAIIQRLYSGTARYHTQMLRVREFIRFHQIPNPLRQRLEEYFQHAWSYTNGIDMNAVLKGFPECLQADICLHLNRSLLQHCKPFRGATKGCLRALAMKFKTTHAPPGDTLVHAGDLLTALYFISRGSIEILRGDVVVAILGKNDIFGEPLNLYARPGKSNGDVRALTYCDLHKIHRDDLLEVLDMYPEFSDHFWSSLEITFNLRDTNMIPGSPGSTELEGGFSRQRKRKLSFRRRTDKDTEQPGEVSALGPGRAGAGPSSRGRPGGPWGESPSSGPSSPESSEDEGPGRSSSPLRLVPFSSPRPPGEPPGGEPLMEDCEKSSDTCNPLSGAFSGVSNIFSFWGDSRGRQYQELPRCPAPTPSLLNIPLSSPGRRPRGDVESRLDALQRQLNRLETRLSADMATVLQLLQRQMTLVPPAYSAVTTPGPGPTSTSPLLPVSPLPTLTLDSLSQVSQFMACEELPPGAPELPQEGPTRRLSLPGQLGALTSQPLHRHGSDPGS

The test has as its target human ether-à-go-go-related gene (hERG) potassium channel (human, UniProt Q12809). The test is described as follows: primary screen, population patch clamp on CHO cells stably expressing hERG.
As for `CSc1nc(Cl)c(Cc2ccc(OC(C)C)cc2)c(N(C)C)n1`, the “hERG current change (%, negative = inhibition) at 1uM” value is reported as 6.74%. `O=C1NC(c2ccccc2)=C(c2nc3ccccc3s2)C(c2ccc(F)cc2)N1` (centres unmarked): the “hERG current change (%, negative = inhibition) at 1uM” value is listed as 6.6%. Turning to `CCOc1ccc(-c2ccc(/C=C3/C(=N)N4C(C)=CSC4=NC3=O)o2)c([N+](=O)[O-])c1`, the “hERG current change (%, negative = inhibition) at 1uM” value was determined as 13.4%. On to `O=C(c1ccc2c(=O)n(C3CCCC3)c(=S)[nH]c2c1)N1CCN(C2CCCCC2)CC1`, for which the “hERG current change (%, negative = inhibition) at 1uM” value is 11.7%. In the case of `CCO/C(C)=C1\N=C(c2ccc(Cl)cc2)OC1=O`, the “hERG current change (%, negative = inhibition) at 1uM” value is given as 3.57%. Take `COc1ccc(S(=O)(=O)N(C)c2c(C)n(C)n(-c3ccccc3)c2=O)cc1OC`: the “hERG current change (%, negative = inhibition) at 1uM” value is recorded as 8.97%. As to `Cc1nnc(NCc2ccco2)s1`, the “hERG current change (%, negative = inhibition) at 1uM” value is 2.51%. Take `CC(C)C(NC(=O)C1CCC(C(C)(C)C)CC1)C(=O)NCCCN1CCCCC1` (centres unmarked): the “hERG current change (%, negative = inhibition) at 1uM” value was -1.45%.

`CC(=O)NC(C)CCc1ccccc1` (centres unmarked): the “hERG current change (%, negative = inhibition) at 1uM” value amounted to 9.31%. In the case of `CCOC(=O)c1cc(CO)cc(C(=O)OCC)c1`, the “hERG current change (%, negative = inhibition) at 1uM” value is listed as 8.86%. For `Cc1ccc(/C(N)=N/OC(=O)CCc2ccccc2)cc1`, the “hERG current change (%, negative = inhibition) at 1uM” value is listed as 3.03%.

Take `Cc1nc(NCc2ccco2)c(C#N)c2c1COC(C)(C)C2`: the “hERG current change (%, negative = inhibition) at 1uM” value is on record as 9.93%.

Consider `Cc1c(C)c(C)c(S(=O)(=O)N2CCNCC2)c(C)c1C.Cl`, for which the “hERG current change (%, negative = inhibition) at 1uM” value was 8.99%. Consider `Cn1c(CCC(=O)Nc2ccc(F)cc2)nc2cc(S(=O)(=O)N3CCOCC3)ccc21`, for which the “hERG current change (%, negative = inhibition) at 1uM” value is recorded as -7.81%.

Consider `Cc1c(C(=O)NCCC2=CCCCC2)sc2ncnc(N3CCCCC3C)c12` (centres unmarked), for which the “hERG current change (%, negative = inhibition) at 1uM” value was found to be 11.6%. As for `NC(=O)c1ccc(N=Cc2c(O)ccc3ccccc23)cc1`, the figure is 14.1%. As to `Nc1cccc(C(=O)OCC(=O)NC2CCCc3ccccc32)c1` (centres unmarked), the “hERG current change (%, negative = inhibition) at 1uM” value was 12.3%. With `COc1ccccc1NC(=O)Cc1nnc(SCC(=O)NC2CCCCC2C)n1C` (centres unmarked) the figure was 14.7%; with `COC(=O)c1c(C)[nH]c(C=O)c1-c1ccccc1`, 13.9%; with `O=C(O)CCCn1cc(NC(=O)c2ccco2)cn1`, 16.6%. In the case of `COc1ccc(CCNS(=O)(=O)c2ccc(S(=O)(=O)N3CCCC3)cc2)cc1OC`, the “hERG current change (%, negative = inhibition) at 1uM” value was 6.19%. Take `Brc1cc2c(cc1/C=N/Nc1nc(N3CCCC3)nc(N3CCOCC3)n1)OCO2`: the “hERG current change (%, negative = inhibition) at 1uM” value is given as -4.8%. Consider `COc1ccc(O)c(C(=O)c2cnc3c(c2)c(C)nn3CCO)c1`, for which the “hERG current change (%, negative = inhibition) at 1uM” value is reported as -0.986%. For `O=C(NCC1CCN(Cc2ccc(F)cc2)CC1)C1CCCN(c2ncnc3c2nc2n3CCCCC2)C1` (centres unmarked), the “hERG current change (%, negative = inhibition) at 1uM” value is 5.39%.

Take `CCCC(C)NC(C)C(=O)NC1CCCC1` (centres unmarked): the “hERG current change (%, negative = inhibition) at 1uM” value is on record as 13.5%. On to `O=C(c1sc2cc([N+](=O)[O-])ccc2c1Cl)N1CCCCC1`, for which the “hERG current change (%, negative = inhibition) at 1uM” value is -21.3%. With `O=C(/C=C/c1ccc(OCCCF)cc1)NCc1ccc(Cl)cc1`, the “hERG current change (%, negative = inhibition) at 1uM” value stood at 11.8%. As for `CSc1c(C#N)c(N)nc2sc(C(=O)c3ccccc3)c(N)c12`, the figure is 10.7%; as for `CCOc1ccc(NC(=O)c2ccc3[nH]c(=O)c(=O)[nH]c3c2)cc1`, 12.7%; as for `CC(C)(C)C(=O)Nc1nnc(CCc2ccccc2)s1`, 1.05%. With `CC(C)Cc1nc(SCC(=O)Nc2nnc(CC(C)C)s2)n[nH]1`, the “hERG current change (%, negative = inhibition) at 1uM” value is reported as -3.92%. In the case of `COc1cc(CN2CCC(C(=O)NCC(C)(C)CN(C)C)CC2)ccc1OCc1ccccc1.O=C(O)C(=O)O`, the “hERG current change (%, negative = inhibition) at 1uM” value stood at 14.8%. On to `CCOc1ccc(C2=Nn3c(nnc3-c3ccco3)SC2)cc1`, for which the “hERG current change (%, negative = inhibition) at 1uM” value was -2.23%.

Turning to `Cc1c(Cl)cccc1NC(=S)NN`, the “hERG current change (%, negative = inhibition) at 1uM” value came out at 8.88%. With `Nc1nnc(SCC(=O)Nc2cc(F)ccc2F)s1`, the “hERG current change (%, negative = inhibition) at 1uM” value turned out to be 9.97%. Regarding `N#CCCn1cc(/C=N/NC(=O)c2ccncc2)c(-c2ccc(F)cc2)n1`, the “hERG current change (%, negative = inhibition) at 1uM” value is given as -12.7%. As for `Nc1n[nH]c(CCCO)n1`, the “hERG current change (%, negative = inhibition) at 1uM” value turned out to be 11.8%. `CCCn1c(N)c(C(=O)CSc2nnc(-c3cccnc3)n2-c2ccc(C)cc2C)c(=O)[nH]c1=O`: the “hERG current change (%, negative = inhibition) at 1uM” value amounted to 7.05%. In the case of `O=C(CO/N=C/c1c(Cl)cccc1Cl)NNC(=O)c1cccc(Cl)c1`, the “hERG current change (%, negative = inhibition) at 1uM” value amounted to 11.3%.

Take `O=S(=O)(c1ccc(F)cc1)N1CCN(c2ccc(-c3ccccc3)nn2)CC1`: the “hERG current change (%, negative = inhibition) at 1uM” value is 5.73%.

For the compound `O=C1NC(Nc2nccs2)(C(F)(F)F)C(=O)N1CCc1ccccc1` (centres unmarked), the “hERG current change (%, negative = inhibition) at 1uM” value is on record as 10.9%.

Take `CC1C(=NO)C(C)C(c2ccccc2)NC1c1ccccc1` (centres unmarked): the “hERG current change (%, negative = inhibition) at 1uM” value is -10.6%. For `O=C(CN1CCN(c2ccccc2)CC1)Nc1ccccc1Sc1ccccc1`, the “hERG current change (%, negative = inhibition) at 1uM” value turned out to be 10.7%. In the case of `NC(=O)Cn1cc(C(=O)C(=O)N2CCOCC2)c2ccccc21`, the “hERG current change (%, negative = inhibition) at 1uM” value amounted to 8.97%.
